16 molecules from the supplement of paper PMC8674133 can be followed below.

For experiment [1], the target named is SARS-CoV-2 Wuhan-Hu-1 spike pseudovirus. Nature of the experiment: pseudovirus neutralization IC50; higher = weaker neutralization. As for the experimental part:
(§1)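 Single-round luciferase reporter pseudovirus mixed with antibody dilutions and put on 293T-ACE2 cells for 48 h; signal relative to no-antibody wells, four-parameter fit.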

Experiment [2] has the same target. Put plainly: pseudovirus neutralization IC90; higher = weaker neutralization. As for the experimental part: as §1
Experiment [3] addresses SARS-CoV-2 Wuhan-Hu-1 spike receptor-binding domain. Put plainly: ELISA binding EC50; higher = weaker binding; ELISA of recombinant human antibody on coated antigen, from 10 µg/ml in fourfold dilutions; four-parameter fit. In general terms: ELISA stands for enzyme-linked immunosorbent assay.

Residue numbers refer to the chain shown, from its start. Recombinant human monoclonal antibodies (heavy:light variable regions). ELISA EC50 on the named antigen, from 10 µg/ml down; IC50 / IC90 against spike pseudovirus on 293T-ACE2 cells, 48 h; lower = stronger. Calls: IC50 above 1,000 ng/ml = non-neutralizing; EC50 above 2,000 ng/ml = non-binder. The source prints 1000 for neutralization that was not reached; it is given as >1000 ng/ml. A few antibodies were first reported in earlier work of the same group. Bounds are passed on as bounds.

B1: C2235 (protein)
chain 1: EVQLVESGGGLIQPGGSLRLSCAASGFTVSSNYMSWVRQAPGKGLEWVSVIYSGGSTFYADSVKGRFTISRDHSKNTLYLQMNSLRAEDTAVYYCARDFGGLRFDYWGQGTLVTVSS
chain 2: IRMTQSPSSLSASVGDRVTITCQASQDISNYLNWYQQKPGKAPKLLIYDASNLETGVPSRFSGSGSGTDFTFTISSLQPEDIATYYCQQYDNLPSYTFGQGTKLEIK
Turning to B1, the “pseudovirus neutralization IC50” value in experiment [1] was determined as 0.0171 µg/mL. The “pseudovirus neutralization IC90” value in experiment [2] is 0.0726 µg/mL. For the same molecule, in experiment [3], the “ELISA binding EC50” value was determined as 0.00137 µg/mL.

B2: C2236 (protein)
chain 1: B1 chain 1 with S7T, I51V, H73N, F99R, G101D, L102S, R103L
chain 2: DIQMTQSPSTLSASVGDRVTITCRASQSFSTWLAWYQQKPGKAPKLLIYKASSLESGVPSRFSGSGSGTEFTLTISSLQPDDFATYYCQHYNSYSPGGTFGQGTKVEIK
For the molecule B2, the “pseudovirus neutralization IC50” value in experiment [1] was determined as 0.00715 µg/mL. Moreover, the “pseudovirus neutralization IC90” value in experiment [2] is 0.0532 µg/mL. Besides, in experiment [3], the “ELISA binding EC50” value was 0.00169 µg/mL.

B3: C2459 (protein)
chain 1: QVQLVQSGAEVKKPGASVKVSCKASGYTFTSYDINWVRQATGQGLEWMGWMNPNSGNTGYAQKFQGRVTMTRNTSISTAYMELSSLRSEDTAVYYCARGSLIFGVVTHFDYWGQGTLVTVSS
chain 2: SYELTQPPSVSVAPGQTARIACGGDNIGSKNVHWYQQKPGQAPVLVVYDDSDRPSGIPERFSGSNSGNTATLTISRVEAGDEADYYCQVWDSSSDHPNWVFGGGTKLTVL
Regarding B3, in experiment [1], the “pseudovirus neutralization IC50” value came to 0.199 µg/mL. In experiment [2], the “pseudovirus neutralization IC90” value was above 1 µg/mL. Besides, the “ELISA binding EC50” value in experiment [3] is 0.00352 µg/mL.

B4: C2409 (protein)
chain 1: B3 chain 1 with N35H, K63T, T69S, S77R, T116A
chain 2: B3 chain 2 with S94Y
Take B4: the “pseudovirus neutralization IC50” value in experiment [1] is 0.173 µg/mL. Also, the “pseudovirus neutralization IC90” value in experiment [2] was above 1 µg/mL. In addition, in experiment [3], the “ELISA binding EC50” value is 0.00236 µg/mL.

B5: C2208 (protein)
chain 1: EVQLLESGGGLVQPGGSLRLSCAASGFTFSSYAMSWVRQAPGKGLEWVSTINGSGGSTYNADSVKGRFTISRDNSKNTLYLQMNSLRAEDTAVYYCAKDLHYDNSGIDDYYYYYGMDVWGQGTTVTVSS
chain 2: SYELTQPPSVSVSPGQTASITCSGDKLGDKYACWYQQKPGQSPVLVIYQDTKRPSGIPERFSGSNSGNTATLTISGTQVMDEADYYCQAWGSSTFYVFGTGTRVTVL
As for B5, the “pseudovirus neutralization IC50” value in experiment [1] is 0.249 µg/mL. In addition, the “pseudovirus neutralization IC90” value in experiment [2] is above 1 µg/mL. Also, the “ELISA binding EC50” value in experiment [3] amounted to 0.0025 µg/mL.

B6: C2237 (protein)
chain 1: EVQLVESGGGLIQPGGSLRLSCAASGFTVSSNYMSWVRQAPGKGLEWVSVLYSGGSTFYADSVKGRFTISRDNSKNTLYLQMNSLRAEDTAFYYCAREVYAMDVWGQGTTVTVSS
chain 2: DIQLTQSPSFLSASVGDRVTITCRASQGISSYLAWYQQKPGKAPKLLIYAASTLQSGVPSRFSGSGSGTEFTLTISSLQPEDFATYYCQQLNSYPGYTFGQGTKLEIK
Regarding B6, in experiment [1], the “pseudovirus neutralization IC50” value is 0.00791 µg/mL. The “pseudovirus neutralization IC90” value in experiment [2] is 0.0474 µg/mL. In addition, the “ELISA binding EC50” value in experiment [3] was 0.00203 µg/mL.

B7: C2460 (protein)
chain 1: EVQLVESGGGLIQPGGSLRLSCAASVITVSSNYMSWVRQAPGKGLEWVSLIYSGGSTYYADSVKGRFTISRDNSKNTLYLQMNSLRAEDTAVYYCARDLQQRGGMDVWGQGTTVTVSS
chain 2: IRMTQSPSSLSASVGDRVTITCQASQDISNFLNWFQQKPGKAPKLLIYDASNLGAGVPSRFSGSGSGTDFTFTISGLQPEDIATYYCQQYDNLPITFGQGTRLEIK
For B7, the “pseudovirus neutralization IC50” value in experiment [1] amounted to 0.00693 µg/mL. Besides, the “pseudovirus neutralization IC90” value in experiment [2] came out at 0.0484 µg/mL. The “ELISA binding EC50” value in experiment [3] came out at 0.00189 µg/mL.

B8: C2408 (protein)
chain 1: VQLVESGGGVVQPGRSLRLSCAASGFSFSRYGMHWVRQAPGKGLEWVAVISYDGSNKDYVDSVKGRFTISRDSSKNTLYLQMNSLRAEDTAVYYCAKQGEIYCSAGNCYSGYYDYWGQGTLVTVSS
chain 2: EIVLTQSPGTLSLSPGERATLSCRASQSVSSSYLAWYQQKPGQAPRLLISGASSRAAGIPDRFRGSGSGTDFTLTISRLEPEDFAVYYCQQYGSSPGTFGQGTKVEIK
In the case of B8, the “pseudovirus neutralization IC50” value in experiment [1] was above 1 µg/mL. Also, the “pseudovirus neutralization IC90” value in experiment [2] was above 1 µg/mL. In addition, the “ELISA binding EC50” value in experiment [3] was 0.00129 µg/mL.

B9: C2234 (protein)
chain 1: VQLVESGGGEVQPGGSLRLSCAASGLTFSSYGMHWVRQAPGKGLEWVAFIRNDGSNKYYADSVKGRFTISRDNSKNTLYLQMNSLRAEDTAVYYCAKDGGYYYESSGYFDYWGQGTLVTVSS
chain 2: IRMTQSPSSLSASVGDRVTITCQASQDISNYLNWYQQKPGKAPKLLIYDASNLETGVPSRFSGSGSGTDFTFTISSLQPEDIATYYCQQYDNLPPQFTFGPGTKVDIK
Consider B9, for which, in experiment [1], the “pseudovirus neutralization IC50” value is above 1 µg/mL. Further, in experiment [2], the “pseudovirus neutralization IC90” value was above 1 µg/mL. Moreover, the “ELISA binding EC50” value in experiment [3] is 0.00185 µg/mL.

B10: C2229 (protein)
chain 1: EVQLVESGGGLVKPGGSLRLSCAASGFTFSSYSMNWVRQAPGKGLEWVSSISSGSSYIYYADSMKGRFTISRDNAKNSLYLQMNSLRAEDTALYYCARERRSDYSSDWYDPPTTPRSFDYWGQGTLVTVSS
chain 2: SYELTQPPSVSVAPGQTARITCGGNNIGSKSVHWYQQKPGQAPVLVVYDDSDRPSGIPERFSGSNSGNTATLTISRVEAGDEADYYCQVWDSRSDHWVFGGGTKLTVL
B10: in experiment [1], the “pseudovirus neutralization IC50” value worked out at 0.0229 µg/mL. Moreover, the “pseudovirus neutralization IC90” value in experiment [2] was determined as 0.405 µg/mL. For the same molecule, the “ELISA binding EC50” value in experiment [3] was 0.00256 µg/mL.

B11: C2470 (protein)
chain 1: QVQLVQSGAEVKKPGASVKVSCKASGYTFTSYGFSWVRQAPAQGLEWMGWISAYNGNTKYAQKFQGRVTMTTDTSTSTAYMELRSLRSDDTAVYYCARALTGVYNWFDPWGQGTLVTVSS
chain 2: NFMLTQPHSVSESPGKTVTISCTGSSGSIASNYVQWYQQRPGSAPTTVIYEDNQRPSGVPDRFSGSIDSSSNSASLTISGLKTEDEADYYCQSYDTSNVVFGGGTKLTVL
Turning to B11, the “pseudovirus neutralization IC50” value in experiment [1] came to 0.501 µg/mL. In addition, in experiment [2], the “pseudovirus neutralization IC90” value was above 1 µg/mL. In addition, in experiment [3], the “ELISA binding EC50” value came to 0.00141 µg/mL.

B12: C2471 (protein)
chain 1: B11 chain 1 with F34M, A42G, A53T, T58K, S88F
chain 2: B11 chain 2 with S31T, T96G, S97T
For the molecule B12, in experiment [1], the “pseudovirus neutralization IC50” value was 0.346 µg/mL. Further, the “pseudovirus neutralization IC90” value in experiment [2] is above 1 µg/mL. Further, in experiment [3], the “ELISA binding EC50” value stood at 0.00166 µg/mL.

B13: C2238 (protein)
chain 1: QVQLQQWGAGLLKPSETLSLSCAVYGGSLSGYYWSWIRQPPGKGLEWIGEINHFGSTGYNPSLKSRVTISVDTSKSQFSVKLSSVTAADTAVYYCARKPLLYSNLSPGAFDIWGQGTMVTVSS
chain 2: QSALTQPASVSGSPGQSITISCTGTSSDVGGYHYVYVSWYQQHPGKAPKLMIYEVSNRPSGVSNRFSGSKSGNTASLTISGLQAEDEADYYCSSYTSSSALWVFGGGTKLTVL
Turning to B13, the “pseudovirus neutralization IC50” value in experiment [1] is above 1 µg/mL. The “pseudovirus neutralization IC90” value in experiment [2] is above 1 µg/mL. Further, the “ELISA binding EC50” value in experiment [3] turned out to be 5.17 µg/mL.

B14: C2239 (protein)
chain 1: EVQLLESGGGLVQPGGSLRLSCSASGFTYSYFAMSWVRQAPGKGLEWVSTISGSGGASYYADSVKGRFAISRDNSKDTMYLQMNRLRAEDTAVYYCAKEKFNGDYGGVVDYWGQGTLVTVSS
chain 2: IRMTQSPSSLSASVGDRVTITCQASQDIRKFLNWYQQKPGKAPKLLIYDASNLETGVPSRFSGSGSGTEFTLIISSLQPEDIATYCCQQYDNLPITVGGGTKVEIK
As for B14, in experiment [1], the “pseudovirus neutralization IC50” value was above 1 µg/mL. Besides, the “pseudovirus neutralization IC90” value in experiment [2] was above 1 µg/mL. For the same molecule, the “ELISA binding EC50” value in experiment [3] came out at 0.0133 µg/mL.

B15: C2406 (protein)
chain 1: EVQLVESGGGLVQPGGSLRLSCAASEFTVSSNYMSWVRQAPGKGLEWVSVIYSGGSTYYADSVKGRFTISRDNSKNTLYLQMNSLRAEDTAIYYCARDRGLVSDYWGQGTLVTVSS
chain 2: B14 chain 2 with R29S, K30N, F31Y, E69D, L72F, I73T, C86Y, I95R, V97F
For B15, in experiment [1], the “pseudovirus neutralization IC50” value is 0.888 µg/mL. In addition, the “pseudovirus neutralization IC90” value in experiment [2] was above 1 µg/mL. In experiment [3], the “ELISA binding EC50” value was determined as 0.00316 µg/mL.

B16: C2240 (protein)
chain 1: QVQLVESGGGLVKPGGSLRLSCAASGFMFSDYYMGWVRQSPGKGLEWLSYISGSSNVIGYADSVKGRFTISRDNAKTSLYLQMNSLAADDTAVYYCARGEQTGVPGGWLDSWGQGTLVTVSS
chain 2: DIQMTQSPSSVSASVGDRVTITCRASQGISGWLAWYQQKPGKAPELLISAASSLQSGVPSRFSGSGSGTDFTLTISGLRPEDFATYYCQQTDSFPYTFGQGTKLEIK
As to B16, in experiment [1], the “pseudovirus neutralization IC50” value is above 1 µg/mL. Moreover, the “pseudovirus neutralization IC90” value in experiment [2] is above 1 µg/mL. For the same molecule, the “ELISA binding EC50” value in experiment [3] is 0.00206 µg/mL.
